Out of some 44,000 compounds screened, about 340 (0.77%) were called active. About 5% were inconclusive and are not listed. The call rests on the fitted dose curve; in most records, active means well fitted inhibition curve with a large enough effect; inconclusive means small, poorly fitted or top-dose-only effect; inactive means flat fitted curve, though single readings scatter. This is one part of the list.
Test: Acumen qHTS Assay for Inhibitors of the mTORC1 Signaling Pathway in MEF (Tsc2-/-, p53-/-) Cells: Sytravon;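 further: plate controls were DMSO for no effect and rapamycin for full effect; nearly all actives have a fitted effect of over 50% in size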
Details: phospho-rpS6 immunofluorescence/PI, 24 h; series mostly up to 38.3 µM; activity change, negative = inhibition: at the top concentration
Outline: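 Plate MEFs (Tsc2-/-, p53-/-, empty vector) in DMEM/10% FBS; after 24 h add compound, incubate 24 h at 37 degree Celsius; fix in PFA/TX-100, block, stain phospho-rpS6 and 10 uM PI; scan at 488 nm; report % positive cells.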

Activity change, negative = inhibition, inactive:
CSc1ccc(CNC(=O)C2CCCN(S(=O)(=O)N(C)c3ccc(F)cc3)C2)cc1 (stereo unspecified) 0.976%
COc1cccc(-c2cn3c(n2)sc2cc(C(=O)NCCCc4ccccc4)ccc23)c1 5.83%
Cc1nn(Cc2ccc(Cl)c(Cl)c2)c(C)c1NC(=O)c1noc2c1CCc1ccccc1-2 -21.9%
CCOc1ccc(CCNC(=O)CCCn2c(=O)c3cccn3c3cccnc32)cc1OCC 0.613%
COC(=O)CC1Oc2ccccc2-n2cc(-c3ccc(C)cc3)nc21 (stereo unspecified) -4.64%
Nc1c(C(=O)NCc2ccc(Cl)cc2Cl)nnn1Cc1ccc(Br)cc1 0%
COc1ccc(OCC(=O)Nc2cc(-c3ccccc3F)nn2-c2ccccc2)cc1 3.79%
CCc1ccc(CNC(=O)c2cc3cc(S(=O)(=O)N4CCCCC4)ccc3n2C)cc1 0.518%
CCCn1ccc2c(OCC(=O)Nc3cc(C)ccc3C)cccc2c1=O -6.15%
Cc1ccc(S(=O)(=O)NCC2CCC(C(=O)NCc3ccc(F)cc3)CC2)cc1 (stereo unspecified) 2.12%
COc1ccc(C)cc1NC(=O)C1CCN(S(=O)(=O)c2c(C)noc2/C=C/c2ccco2)CC1 2.8%
O=C(Nc1ccc(F)cc1F)C(Cc1ccccc1)N1Cc2ccccc2C1=O (stereo unspecified) 5.17%
COc1cccc(-n2c(-c3ccc(Cl)cc3)cc3c2CC(C)(C)CC3=O)c1 -7.71%
O=C(CCC(=O)N1CC2CCCN2c2ccccc21)NCc1cccc(Cl)c1 (stereo unspecified) -28.2%
COc1cc2c(=O)n(Cc3ccccc3Cl)c(=O)n(CC(=O)Nc3ccccc3)c2cc1OC 1.28%
Cc1ccc(C(=O)Nc2nc3ccc(S(=O)(=O)N4CCCC4)cc3s2)cc1 -0.0251%
Cc1ccc(-c2nnc(SCC(=O)NC3CCCC3)nc2-c2ccc(C)cc2)cc1 -2.1%
COc1ccc(CN2C(=O)c3oc4ccc(F)cc4c(=O)c3C2c2ccc(O)cc2)cc1 (stereo unspecified) -10.6%
CCOc1ccc(NC(=O)CCC(=O)N2CC(C)Oc3ccc(C)cc32)cc1 (stereo unspecified) -2.14%
CCCCn1cc2c(c1-c1ccccc1Br)c(=O)n(C)c(=O)n2C -4.05%
Cc1nc(N2CCOCC2)c2c(C(=O)NCCc3ccccc3)c(C)oc2n1 -0.513%
Cc1ccc(C(=O)n2nc(-c3ccco3)nc2NCc2cccs2)cc1 -3.71%
CCOC(=O)C1CCN(S(=O)(=O)c2cc3c4c(c2)CC(=O)N4CCC3)CC1 -2.85%
CCN(CC)CCNC(=O)c1nn(-c2ccc(OC)c(Cl)c2)c(=O)c2c1c1ccccc1n2C -6.87%
CN(C)S(=O)(=O)n1cc(/C=C(\NC(=O)c2ccccc2Cl)C(=O)NCCCn2ccnc2)c2ccccc21 -3.72%
O=C(NCCc1ccccc1)C1(c2cccs2)CCOCC1 0.803%
O=C(NCCc1ccccc1Cl)c1ccc2c(c1)nc1n2CCOC1 -9.53%
CCc1nn(C(C)C(=O)N2CCN(c3cccc(C(F)(F)F)c3)CC2)c(=O)c2cc3occc3n12 (stereo unspecified) 0.667%
COc1cccc(C(=O)N2c3nc(-c4ccco4)nn3C3(CCCCC3)[C@@H]3CCCC[C@@H]32)c1 -2.75%
COc1cc(OC)cc(-c2nc3nc(C)c(CCC(=O)Nc4ccc(F)cc4F)c(C)n3n2)c1 2.93%
CCCNC(=O)c1c(C)nn(-c2cccc(C)c2)c1-n1cccc1 5.08%
CCc1ccccc1NC(=O)CSCc1cnn(-c2ccccc2)c1-n1cccc1 -10.3%
Cc1ccc(Cn2cc(C(=O)c3ccc(F)cc3)c(=O)c3cc4c(cc32)OCCO4)cc1 5.81%
CCOc1ccccc1CNCCNC(=O)c1nonc1N -9.16%
COc1cc(OC)c(NC(=O)CC(c2cccs2)N2Cc3ccccc3C2=O)cc1Cl (stereo unspecified) -6.86%
Cc1ccc2c(c1)c1c(c(=O)n(-c3ccccc3C)c(=O)n1CC(=O)N1CCCC1)n2C -0.68%
Cc1ccccc1Nc1sc(C(=O)c2ccccc2)c(N)c1C(=O)NCc1ccc(Cl)cc1 -7.22%
Cc1ccc2ncc3c(-c4ccc(F)cc4)nn(-c4cccc(F)c4)c3c2c1 4.71%
Cc1ccc(S(=O)(=O)c2cn(CC(=O)Nc3ccc4c(c3)OCO4)c3ccccc3c2=O)cc1 -10.4%
Cc1sc2ncn(CC(=O)N3CCN(c4ccc(F)cc4)CC3)c(=O)c2c1S(=O)(=O)N1CCCCC1 -3.12%
Cc1cccc2sc(N(CCCN(C)C)C(=O)c3ccc(Cl)s3)nc12 -2.18%
Cc1ccc(Nc2nc3c(S(=O)(=O)c4ccccc4)nnn3c3ccsc23)c(C)c1 -2.5%
Cc1cccc(NC(=O)Cn2nnc(C(=O)Nc3ccc(F)c(Cl)c3)c2N)c1 -5.32%
COc1cc(C2C(C(=O)OCC(C)C)=C(C)N=C3SCCC(=O)N32)ccc1OCc1ccccc1 (stereo unspecified) 1.74%
COc1cccc(NC(=O)CSc2nc(=O)n(Cc3ccco3)c3c2CCC3)c1 0.697%
Cc1cc(C)c2nc(N(Cc3cccnc3)C(=O)c3ccc(S(=O)(=O)N(C)C)cc3)sc2c1 -5.4%
Cn1c(C(=O)NCc2ccccc2F)cc2oc3ccccc3c21 -5.84%
CCN1CCN(c2cc3c(cc2F)c(=O)c(S(=O)(=O)c2ccc(OC)cc2)cn3CC)CC1 2.58%
Cc1c(C(=O)Nc2cccc(C(F)(F)F)c2)sc2nc3n(c(=O)c12)CCCC3 -0.891%
COc1cccc2sc(N(Cc3cccnc3)C(=O)Cc3ccccc3)nc12 0.459%
O=C(c1ccco1)n1nc(-c2ccccc2)nc1NCc1ccc(F)cc1 -2.26%
CCCCNc1ncnc2c1nnn2C -7.5%
CCN1CCN(c2oc(-c3ccc(COc4ccc(C)cc4)o3)nc2C#N)CC1 -1.34%
COc1ccc2oc(-c3cccc(NC(=O)c4ccc(C#N)cc4F)c3)nc2c1 -13.9%
CCCCNC(=O)c1ccc2c(c1)NC(=O)C(CS(=O)(=O)Cc1cccc(C)c1)N2 (stereo unspecified) -10.1%
COc1cccc(NC(=O)Cn2c(=O)n(-c3ccc(Cl)cc3)c(=O)c3oc4ccccc4c32)c1 -4.78%
COc1cc(C(=O)Nc2ccc3[nH]c(=O)sc3c2)cc(OC)c1OC -19.9%
CC(C)C(=O)N1c2ncnn2C2(CCCCC2)[C@@H]2CCCC[C@@H]21 -7.56%
CC1=C(C(=O)Nc2cccnc2)C(c2cccc(F)c2)n2nc(SCc3ccccc3)nc2N1 (stereo unspecified) -12.9%
COc1cccc(C(=O)NCC(=O)OCc2cc(=O)n3c(C)csc3n2)c1 -13.2%
CC(C)Cn1c(=O)c2sccc2n2c(CCCC(=O)NCCc3ccccc3)nnc12 -0.0061%

From PubChem BioAssay AID493208 (National Center for Advancing Translational Sciences (NCATS), 2011)
